Results from ChEMBL document CHEMBL4888484, “Replenishing the malaria drug discovery pipeline: Screening and hit evaluation of the MMV Hit Generation Library 1 (HGL1) against asexual blood stage Plasmodium falciparum ,using a nano luciferase reporter read-out” (2022).
Out of some 150,000 compounds screened, about 540 (0.36%) showed an effect of 50% or more. The list shows a part of the results.

system: Plasmodium falciparum; assay: Primary screen in NF54 nanoGlo assay, in single point, at 2uM, 72h; a lower Z score goes with more inhibition; assay type: functional, Erythrocyte; details: timepoint 72 hour

| Compound | % Inhibition | Z score |
| --- | --- | --- |
| COc1ccc(CNC(=O)C[C@@H]2C[C@H]3O[C@H](CNC4CCC[C@@H](C)C4)[C@@H](O)[C@H]3O2)cc1 (stereo partly drawn) | 2% | -0.19 |
| COc1ncccc1NC(=O)OCC(F)(F)F | -9% | 1.17 |
| O=S(=O)(c1cnc2n1CCC2)N1CCOc2c1ccc(F)c2F | -14% | 2.21 |
| C[C@@H](C(N)=O)N1CCN(Cc2cccc3[nH]ccc23)CC1 | -5% | 0.55 |
| Cc1cccc2c1cc(C(=O)N1CC=C[C@H]1C(=O)O)n2C | -9% | 1.61 |
| CC(=O)N1CCN(C2CN(Cc3ccncc3Cl)CC2C)CC1 (stereo not drawn) | -9% | 0.93 |
| COc1cccc2ncn([C@@H](C)c3nnc(N)s3)c(=O)c12 | -11% | 1.62 |
| CS(=O)(=O)NCCCNc1ccc(Br)cc1C#N | -12% | 1.66 |
| O=C(NCc1ccccc1)c1ncoc1-c1ccco1 | -13% | 1.3 |
| CN(CCN1CCCC1=O)Cc1ccc(C#N)cc1Br | 0% | -0.01 |
| Cc1cc(N(C)C(=O)[C@H]2C[C@@H]2C(F)F)ccc1O | 13% | -1.3 |
| Cc1nc(-c2ccccc2)c(C(=O)N2CCC[C@H](c3nc4ccccc4s3)C2)s1 | -8% | 1.5 |
| Cc1cc(=O)n(CCN2CCCC[C@H]2c2nc3ccccc3[nH]2)c(=O)[nH]1 | -2% | 0.28 |
| CN(Cc1cn(-c2ccc(Cl)cc2Cl)nn1)C[C@H]1CCCOC1 | 3% | -0.59 |
| CC(=O)N(c1nc(CN(CCC#N)C(C)(C)C)cs1)C1CC1 | 6% | -1.14 |
| CC(C)COc1ccccc1CN(C)Cc1nnc([C@H]2C[C@@H](N)C2)n1C | 7% | -0.78 |
| COc1ccc(-c2ncc(C(=O)N3CCC(C)CC3)c(N(C)Cc3ccccc3)n2)cc1 | -2% | 0.2 |
| C[C@H]1CN(C2CCOCC2)CCN1C(=O)c1ccc2[nH]c3c(c2c1)CCCC3 | -2% | 0.29 |
| COc1cc(C#N)cc(OC)c1OC(C)C | 12% | -1.53 |
| c1nc(N2CC[C@]3(CCOC3)C2)c2[nH]cnc2n1 | -5% | 0.52 |
| COc1ccc(N2CCN(CN3C(=O)NC4(CCCCCCC4)C3=O)CC2)cc1 | -9% | 1.61 |

| Compound | % Inhibition | Z score |
| --- | --- | --- |
| Cc1nnc([C@H](C)N(C)CCc2ccncc2)o1 | 0% | -0.04 |
| CCN(CC(=O)N1CCCS1(=O)=O)c1ccccc1 | -8% | 0.82 |
| CCC(=O)N1CCC2(CC1)OC[C@@H](C(=O)NCc1cccc(C(F)(F)F)c1)N2C(=O)c1ccccc1C | 9% | -1 |
| Cc1ccc(C)c(NS(=O)(=O)c2ccc3c(c2)sc(=O)n3CCC(=O)N2CCCC2)c1 | 7% | -0.83 |
| COc1ccc(CN2C(=O)N[C@@H](CCC(=O)Nc3ccc4c(c3)OCCO4)C2=O)cc1 | 5% | -0.68 |
| O=C(NCCc1ccccn1)[C@H](c1ccccc1)n1cnnn1 | -6% | 1.2 |
| Cc1ccc(NC(=O)C2CCC(=O)CC2C)nc1 (stereo not drawn) | -17% | 2.27 |
| CC(C)(O)CN(Cc1ccccc1)C(=O)Nc1nnc2ccccn12 | -8% | 0.84 |
| O=C(CC1CC2CCC1C2)NCCc1cn2cccnc2n1 (stereo not drawn) | -2% | 0.23 |
| CC[C@H](C)NC(=O)c1ccc(CN2C(=O)COc3ccc(C(=O)COc4cc(C)ccc4F)cc32)o1 | -3% | 0.33 |
| Cn1cc([C@@H]2CCCN2Cc2coc(-c3ccccc3)n2)cn1 | -15% | 1.51 |
| N#C[C@H]1CCCN(CCN2CCN(c3ccccc3)CC2)C1 | -7% | 1.13 |
| O=C(CN1CCC2(CC1)OCCO2)c1c[nH]c2ccccc12 | 4% | -0.46 |
| CC(C)[C@H](NS(C)(=O)=O)c1ccc(F)cc1F | 27% | -3 |
| CCC(Oc1ccc(F)cc1)C(=O)N(Cc1cccc2ccccc12)C1CCS(=O)(=O)C1 (stereo not drawn) | 1% | -0.12 |
| CNC(=O)CN1CCN(C(=O)c2ccc3c(c2)ncn3C(C)C)CC1 | -3% | 0.26 |
| O=C(Nc1cnn(CCF)c1)Nc1cc2c(cn1)CCCC2 | -9% | 0.93 |
| COC(=O)Cc1nnn(CC(=O)NC(=O)Nc2ccccc2)n1 | -4% | 0.63 |
| Cc1cc(F)ccc1CC(=O)N[C@@H](CC(=O)O)C(C)C | 8% | -1.18 |
| CCc1noc(C)c1NC(=O)C(=O)NC(C)(C)C | -12% | 2.36 |
| Cc1cnc(C(=O)N2CC[C@H](n3c(=O)n(C)c4cccnc43)C2)cn1 | 9% | -1.68 |

| Compound | % Inhibition | Z score |
| --- | --- | --- |
| Cc1cc(CCC(=O)NCc2ccc3c(c2)C(=O)NCC3)no1 | 0% | 0.01 |
| CCC[C@H](C)N1CC2(CCN(C(=O)c3ccc(O)c(C)c3)CC2)OC1=O | -6% | 1.1 |
| O=C(C[C@@H](c1ccsc1)n1cnnn1)Nc1ccc2c(c1)OCCO2 | -2% | 0.31 |
| CC(C)N1CCC(N2CCN(CCCC3CCCC3)C[C@@H]2CCO)CC1 | -17% | 1.78 |
| O=C(Nc1ccc(F)cc1Cl)N1C[C@@H]2[C@@H]3CC[C@@H](C3)[C@@H]2C1 | -23% | 2.65 |
| Cc1ccc(C)c(NC(=O)c2cnn3c4c(cnc23)CCCCC4)c1 | -7% | 1.13 |
| Cc1nccc(C(=O)N2CCN(C)C[C@@H]2C)n1 | -11% | 1.72 |
| CC(C)N1CCC(c2nc([C@]3(c4ccc(F)cc4)CCOC3)no2)CC1 | -18% | 2.47 |
| Nc1nccc(N2CC[C@H]3[C@H](CCC(=O)N3CCc3ccccc3)C2)n1 | -16% | 1.45 |
| Cc1ccc(CNC(=O)c2c[nH]c(-c3ccc(F)cc3)n2)cc1 | -14% | 1.96 |
| Cc1ncsc1CN(C)Cc1nnc(-c2cccs2)o1 | -9% | 1.44 |
| COc1ccccc1[C@@H](C)CC(=O)OCc1nc2cc(C(F)(F)F)ccc2o1 | -2% | 0.2 |
| CC(C)NC(=O)N(Cc1c(-c2ccccc2F)noc1N1CCOCC1)C1CC1 | 2% | -0.18 |
| CO[C@H]1COCC[C@@H]1NC(=O)c1cc(C)oc1C | -14% | 1.67 |
| Cc1ccc2oc(-c3noc(C(=O)NCC4CCN(Cc5ccccc5F)CC4)n3)c(C)c2c1 | -16% | 1.87 |
| OCCCN1CCN(c2ncc3c(n2)CCN3c2ccccc2)CC1 | 3% | -0.39 |
| COc1ccc(C(=O)N2CCCC2)c(OC2CCN(CC[C@H](C)c3ccccc3)CC2)c1 | -2% | 0.3 |
| N#C[C@]1(NC(=O)c2cc(F)c(F)cc2F)CCc2ccccc2C1 | -5% | 0.81 |
| Cc1cccc(NC(=O)c2sccc2S(=O)(=O)N2CCc3ccccc3C2)c1C | -9% | 1.75 |
| COc1ccc(C(=O)N2CCN(Cc3c(-c4cccc(OC)c4)nc4ccc(-c5cccc(C(F)(F)F)c5)cn34)CC2)cc1 | 1% | -0.16 |
| O=C(C1CCCC1)N1CCN(c2nc(-c3ccccc3Cl)nc3cc(Cl)ccc23)CC1 | 0% | -0.01 |

| Compound | % Inhibition | Z score |
| --- | --- | --- |
| O=C(Cc1ccccc1)[C@H]1CCCN(C(=O)CCc2ccco2)C1 | -21% | 4.07 |
| CN(Cc1nc2ccccc2n1C)C(=O)c1cc(COc2ccccc2)[nH]n1 | 1% | -0.23 |
| c1cncc(CN(Cc2ccc3c(c2)OCO3)Cc2cccc3nsnc23)c1 | -2% | 0.32 |
| Cc1noc(C)c1NC(=O)[C@@H]1Cc2ccccc2O1 | -4% | 0.61 |
| Cc1ccc(C2=NC3(CCCCCC3)NC2=O)cc1 | -10% | 1.48 |
| CCc1nnc(CNC(=O)[C@H](CC)n2c(CC)nc3ccccc32)s1 | -12% | 2.19 |
| CCCC[C@H]1C(=O)NCCN1C(=O)c1oc2c(Cl)cccc2c1C | -5% | 0.87 |
| Cc1cccc(NC(=O)[C@@H]2CC[C@H](C(=O)O)C2)c1 | -14% | 1.8 |
| COc1nccc(NC(=O)NC2(c3nccs3)CCCC2)n1 | -4% | 0.64 |
| CCn1nc([C@H]2CCOC2)nc1CCc1ccccc1F | -1% | 0.12 |
| Cc1nnsc1C(=O)NCc1nc(N(C)C)nc(N(C)C)n1 | -22% | 2.82 |
| C[C@H](NCCCc1cccnc1)C(=O)NC1CCCC1 | -9% | 1.56 |
| CCOc1ccc(-c2c(C)n[nH]c2NC(=O)CCc2ccccc2)cc1OCC | -5% | 0.86 |
| CC1(CNc2ccc(Cc3nnc4n3CCC4)cc2)COC1 | -3% | 0.47 |
| Cc1cc(CN(C)C(=O)c2csc(C(C)(C)C)n2)no1 | -8% | 1.15 |
| COc1cccc([C@H]2CN(C(=O)c3ccc4cc[nH]c4c3)C[C@@H]2N)c1 | 13% | -1.7 |
| Nc1noc2cccc(Br)c12 | 2% | -0.28 |
| COc1nccn2c(CNC(=O)Cc3ccccc3)nnc12 | -8% | 1.41 |
| O=S(=O)(Nc1ccc2c(c1)CCCN2S(=O)(=O)c1ccccc1)c1cccs1 | -3% | 0.62 |
| COc1ccc(F)cc1CC(=O)N1CCC[C@H](C2CC2)C1 | -2% | 0.26 |
| COCC(=O)Nc1cc(C(=O)N[C@@H](C)c2csc(C)n2)c2c(c1)nc(C1CCC1)n2C | 10% | -1.27 |
